# Over roughly 33,000 sequences, “E-score (-0.5 to 0.5)” has its median near -0.054; the highest 2% begin near 0.39. The list shows a part of the results.
# Target: Ylr278c (UniProt Q05854)
# Test: PBM E-score (8-mer binding enrichment) (E-score (-0.5 to 0.5)); higher = stronger / more preferred TF binding; most listed sequences are background and not binding sites
# Conditions: protein concentration: 200 nM; construct: GST-DNA-binding domain
# How it was run: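 Universal all-10-mer Agilent arrays, fresh or stripped once, were converted to double-stranded form by primer extension. GST-tagged yeast transcription factors from PURExpress in vitro transcription/translation, full-length or DNA-binding domain only, were applied at about 100-200 nM and detected with fluorescent anti-GST. After masliner normalisation, the Universal PBM Analysis Suite scored each ungapped eight-base word together with its reverse complement by E-score.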
row,Sequence,PBM E-score
1,CCACTTGA,0.043
2,TAGCACTA,-0.23
3,TCATAAAA,-0.0551
4,CCGCGGGC,0.367
5,CTAAATGA,-0.114
6,AAGCCCTC,-0.184
7,AAAGTGGT,-0.15
8,ACACATAC,-0.102
9,ATCAAGCC,-0.148
10,ATCTCTGA,-0.187
11,CCTAACCG,-0.0385
12,CAAAACGG,-0.0308
13,GCTCTTCC,0.0931
14,AAACCGAC,0.0773
15,ACTTGAAG,-0.253
16,ATTCATCG,-0.0157
17,CGTGCCGC,0.12
18,ACACTGAG,-0.245
19,CAGAAACA,-0.241
20,GCAAACTA,-0.206
21,AATCCGAT,0.421
22,GGACTGAA,-0.00012
23,CCAGTGTC,-0.163
24,AGCGGTTC,-0.106
25,ACACCTAA,-0.13

row,Sequence,PBM E-score
1,ACGGAATG,0.183
2,ACAGATGA,-0.125
3,AACACCCT,-0.114
4,ACGGGGAA,0.294
5,AAACCAGA,-0.219
6,AGCGATGC,-0.164
7,GCGTGGCC,-0.101
8,ATTGGTAA,0.00594
9,AGAATCAT,-0.29
10,CTCGAGCA,-0.0715
11,CGGCCTTA,0.352
12,ACAAGTGC,-0.268
13,CTTCATCC,0.0404
14,GCACAGAA,-0.04
15,AGACGATC,-0.101
16,ACTGGGAC,-0.157
17,CCGGAGTA,0.485
18,CATACCAA,0.0519
19,CTGCGTTC,0.0197
20,GCACAGCA,-0.0511
21,AACAACGT,0.00168
22,CCCGCGGG,0.363
23,ATCGTCTG,-0.113
24,GGACCGTA,-0.0273
25,ACGTGCCA,-0.147

row,Sequence,PBM E-score
1,GGCGGCCA,0.051
2,TATACTAA,-0.103
3,ATATTCGG,0.203
4,ATTTACGC,0.138
5,GCTTGCTA,-0.297
6,AGTTGAGA,-0.155
7,GGCGCCAA,0.0842
8,CGTCAGTC,-0.0105
9,AAGTTTCA,-0.0249
10,CGCACACA,-0.0811
11,ACTATATA,-0.0313
12,CCCGACCC,0.125
13,ACCGAGTC,-0.0262
14,ACCGACAG,0.158
15,CTGATAAA,-0.0956
16,AGGCCCAG,-0.0998
17,GATAGCCA,0.0138
18,CATGCTAC,-0.198
19,CGCTACGA,-0.00606
20,CGTGCCCC,-0.149
21,CACAGGAG,-0.115
22,CTCGAACC,-0.104
23,CTGTGTGC,-0.249
24,TAACAGTA,-0.262
25,ACAGTCAA,-0.188

row,Sequence,PBM E-score
1,ACGTTACT,-0.184
2,CATTGTCG,0.0388
3,AACACAAA,-0.106
4,TCAAAGCA,-0.174
5,GCGAGCTA,-0.00839
6,AGAGTAAA,-0.00659
7,ATAGTAAC,-0.0797
8,GGACGCAA,0.142
9,ATGCGTCC,0.0177
10,ATAGTTCG,-0.0272
11,CTGTGAAA,-0.0588
12,CAGGCTAG,-0.292
13,ACGCACGA,-0.168
14,CGTGTCAG,0.0804
15,AAATTCCT,0.155
16,CCTCCAGC,-0.37
17,ATATACAT,-0.124
18,GAAACTAC,0.00656
19,CATTGTAG,-0.0234
20,CTTGTTCC,0.0348
21,ATTGTTTA,-0.127
22,GAACACTA,-0.139
23,AGGTATTG,-0.17
24,ACGACCTC,0.0801
25,ACCAAAAC,0.00872

row,Sequence,PBM E-score
1,ACCGGGAG,0.287
2,ATGTCTCC,0.179
3,TAACACTA,-0.089
4,GGACCGGA,0.442
5,AGGACCGG,0.311
6,GAATATCA,0.108
7,CGTGAAGA,-0.0516
8,CTGGACGC,-0.225
9,GGCAGCCA,-0.00564
10,CCTTCTTA,-0.172
11,CAGATCCC,0.0159
12,CACAACCG,0.0798
13,ATAAGATC,-0.149
14,ATGTGGAC,-0.129
15,CTACTTGA,-0.226
16,GCTCTAGA,-0.22
17,ATGGACGA,0.0678
18,TATTCCAA,-0.177
19,TCGACCAA,-0.27
20,GTGGCGTA,-0.00886
21,GCGTAGAC,-0.275
22,CTGTTACC,-0.101
23,ACCGGCGC,0.351
24,ATGTTGTG,-0.0626
25,CATTCTTA,-0.166

row,Sequence,PBM E-score
1,AGGAACTG,-0.145
2,ACCGCCAA,-0.051
3,CATGCTGG,-0.302
4,CTCTGATC,-0.271
5,ATCCAAGA,-0.0868
6,CGCCAAAA,0.106
7,ACTTCGAC,-0.142
8,GACGAGCA,-0.137
9,ACGACAGA,-0.232
10,GTGGAATA,0.0653
11,ACTCCGCG,0.462
12,TGAGATAA,-0.00905
13,CCGTGCTC,0.191
14,CCTCGTCC,-0.132
15,CCTCTGAA,-0.219
16,GGTATGAC,0.0127
17,ATATGTTC,0.0855
18,TTACAAAA,-0.0461
19,ATAATCAC,-0.135
20,GGCCCAGA,-0.0417
21,AAGCCGAT,0.303
22,AGAAGATC,0.0466
23,CCCCGGGA,0.378
24,ACTACCCA,-0.284
25,CCTGCGGC,0.101

row,Sequence,PBM E-score
1,AAACCACC,-0.03
2,CCGAGCTC,0.202
3,AGCAACAT,-0.0662
4,CCAGTGCA,-0.344
5,AGGTCATA,-0.267
6,GGACTAAC,0.114
7,CAGTCGAG,-0.303
8,ACATAAAT,-0.128
9,AAAGAATG,0.0146
10,GACCTGGA,-0.214
11,AACCTCCT,-0.122
12,GCCCCACC,0.16
13,AGTGGCCC,0.109
14,CAATCCGA,0.251
15,AGCCTAAC,-0.0109
16,ATGTGAAG,-0.197
17,TGTAGTAA,0.103
18,AATTGAAA,-0.0795
19,CATCATTC,-0.0876
20,GATAATCA,-0.0841
21,CACTGAGG,-0.0699
22,CCAGAATC,-0.245
